The record followed here is publication PMC9911399, “Two distinct binding modes provide the RNA-binding protein RbFox with extraordinary sequence specificity”.

Numbering of substitutions follows the chain as printed; changes in the protein carry UniProt numbers. Some of the results follow.

T1: RBFOX1 RRM (Homo sapiens, UniProt Q9NWB1 109-208)
T1 sequence: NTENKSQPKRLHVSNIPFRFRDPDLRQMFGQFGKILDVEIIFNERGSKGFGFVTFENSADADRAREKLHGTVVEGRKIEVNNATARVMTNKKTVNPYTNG

B1: AGGCGAG (DNA:RNA)
RNA: GGGAGACCGGAAUUCAGAUUGUCCAGGCGAGUUAAAUCCCGUCGUAGCCACCA
DNA 1: CAATCTGAATTCCGGTCTCCC
DNA 2: TGGTGGCTACGACGGGATT
B2: UACGAGC (DNA:RNA)
RNA: GGGAGACCGGAAUUCAGAUUGUCCUACGAGCUUAAAUCCCGUCGUAGCCACCA
DNA 1: CAATCTGAATTCCGGTCTCCC
DNA 2: TGGTGGCTACGACGGGATT
B3: AGGUGUC (DNA:RNA)
RNA: B1 RNA with C28U, A30U, G31C
DNA 1: CAATCTGAATTCCGGTCTCCC
DNA 2: TGGTGGCTACGACGGGATT
B4: ACGUCAG (DNA:RNA)
RNA: B1 RNA with G26C, C28U, G29C
DNA 1: CAATCTGAATTCCGGTCTCCC
DNA 2: TGGTGGCTACGACGGGATT
B5: AAAGCUG (DNA:RNA)
RNA: B1 RNA with G26A, G27A, C28G, G29C, A30U
DNA 1: CAATCTGAATTCCGGTCTCCC
DNA 2: TGGTGGCTACGACGGGATT
B6: UUUGUCG (DNA:RNA)
RNA: B2 RNA with A26U, C27U, A29U, G30C, C31G
DNA 1: CAATCTGAATTCCGGTCTCCC
DNA 2: TGGTGGCTACGACGGGATT
B7: CUUGUGA (DNA:RNA)
RNA: B2 RNA with U25C, A26U, C27U, A29U, C31A
DNA 1: CAATCTGAATTCCGGTCTCCC
DNA 2: TGGTGGCTACGACGGGATT
B8: UUUGAUU (DNA:RNA)
RNA: B2 RNA with A26U, C27U, G30U, C31U
DNA 1: CAATCTGAATTCCGGTCTCCC
DNA 2: TGGTGGCTACGACGGGATT
B9: CGGCUGG (DNA:RNA)
RNA: B1 RNA with A25C, G29U, A30G
DNA 1: CAATCTGAATTCCGGTCTCCC
DNA 2: TGGTGGCTACGACGGGATT
B10: AUCCUUU (DNA:RNA)
RNA: B1 RNA with G26U, G27C, G29U, A30U, G31U
DNA 1: CAATCTGAATTCCGGTCTCCC
DNA 2: TGGTGGCTACGACGGGATT
B11: GGAGUAU (DNA:RNA)
RNA: B1 RNA with A25G, G27A, C28G, G29U, G31U
DNA 1: CAATCTGAATTCCGGTCTCCC
DNA 2: TGGTGGCTACGACGGGATT
B12: CACGGUU (DNA:RNA)
RNA: B2 RNA with U25C, A29G, G30U, C31U
DNA 1: CAATCTGAATTCCGGTCTCCC
DNA 2: TGGTGGCTACGACGGGATT
B13: AGAUUAG (DNA:RNA)
RNA: B1 RNA with G27A, C28U, G29U
DNA 1: CAATCTGAATTCCGGTCTCCC
DNA 2: TGGTGGCTACGACGGGATT
B14: AAACCAG (DNA:RNA)
RNA: B1 RNA with G26A, G27A, G29C
DNA 1: CAATCTGAATTCCGGTCTCCC
DNA 2: TGGTGGCTACGACGGGATT
B15: UACUAGU (DNA:RNA)
RNA: B2 RNA with G28U, C31U
DNA 1: CAATCTGAATTCCGGTCTCCC
DNA 2: TGGTGGCTACGACGGGATT
B16: GGGACGU (DNA:RNA)
RNA: B1 RNA with A25G, C28A, G29C, A30G, G31U
DNA 1: CAATCTGAATTCCGGTCTCCC
DNA 2: TGGTGGCTACGACGGGATT
B17: CCUCACU (DNA:RNA)
RNA: B1 RNA with A25C, G26C, G27U, G29A, A30C, G31U
DNA 1: CAATCTGAATTCCGGTCTCCC
DNA 2: TGGTGGCTACGACGGGATT
B18: GCCACCA (DNA:RNA)
RNA: B2 RNA with U25G, A26C, G28A, A29C, G30C, C31A
DNA 1: CAATCTGAATTCCGGTCTCCC
DNA 2: TGGTGGCTACGACGGGATT
B19: UGAUUAG (DNA:RNA)
RNA: B1 RNA with A25U, G27A, C28U, G29U
DNA 1: CAATCTGAATTCCGGTCTCCC
DNA 2: TGGTGGCTACGACGGGATT
B20: CGUUGGU (DNA:RNA)
RNA: B1 RNA with A25C, G27U, C28U, A30G, G31U
DNA 1: CAATCTGAATTCCGGTCTCCC
DNA 2: TGGTGGCTACGACGGGATT
B21: GGGUAUA (DNA:RNA)
RNA: B1 RNA with A25G, C28U, G29A, A30U, G31A
DNA 1: CAATCTGAATTCCGGTCTCCC
DNA 2: TGGTGGCTACGACGGGATT
B22: UCAGCCC (DNA:RNA)
RNA: B2 RNA with A26C, C27A, A29C, G30C
DNA 1: CAATCTGAATTCCGGTCTCCC
DNA 2: TGGTGGCTACGACGGGATT
B23: AGCUCUU (DNA:RNA)
RNA: B1 RNA with G27C, C28U, G29C, A30U, G31U
DNA 1: CAATCTGAATTCCGGTCTCCC
DNA 2: TGGTGGCTACGACGGGATT
B24: CAGGGAA (DNA:RNA)
RNA: B1 RNA with A25C, G26A, C28G, G31A
DNA 1: CAATCTGAATTCCGGTCTCCC
DNA 2: TGGTGGCTACGACGGGATT
B25: CAACCUG (DNA:RNA)
RNA: B1 RNA with A25C, G26A, G27A, G29C, A30U
DNA 1: CAATCTGAATTCCGGTCTCCC
DNA 2: TGGTGGCTACGACGGGATT
B26: GCUGCUU (DNA:RNA)
RNA: B2 RNA with U25G, A26C, C27U, A29C, G30U, C31U
DNA 1: CAATCTGAATTCCGGTCTCCC
DNA 2: TGGTGGCTACGACGGGATT
B27: UUCAAGG (DNA:RNA)
RNA: B2 RNA with A26U, G28A, C31G
DNA 1: CAATCTGAATTCCGGTCTCCC
DNA 2: TGGTGGCTACGACGGGATT
B28: CUCCUAU (DNA:RNA)
RNA: B1 RNA with A25C, G26U, G27C, G29U, G31U
DNA 1: CAATCTGAATTCCGGTCTCCC
DNA 2: TGGTGGCTACGACGGGATT
B29: GUACGCA (DNA:RNA)
RNA: B1 RNA with A25G, G26U, G27A, A30C, G31A
DNA 1: CAATCTGAATTCCGGTCTCCC
DNA 2: TGGTGGCTACGACGGGATT
B30: CAAUUUA (DNA:RNA)
RNA: B2 RNA with U25C, C27A, G28U, A29U, G30U, C31A
DNA 1: CAATCTGAATTCCGGTCTCCC
DNA 2: TGGTGGCTACGACGGGATT
B31: CUAGUUC (DNA:RNA)
RNA: B2 RNA with U25C, A26U, C27A, A29U, G30U
DNA 1: CAATCTGAATTCCGGTCTCCC
DNA 2: TGGTGGCTACGACGGGATT

The test addresses T1, RBFOX1 RRM. Nature of the test: EMSA; HiTS-Eq, 1 nM pool, 10 min; buffer printed only for the single-RNA assays: 10 mM Tris pH 7.5, 150 mM NaCl, 3.4 mM EDTA, 0.001% NP-40, 30 C. The conditions noted are these: tags: His6 N-terminal (pET28a); label: 5' 32P. The procedure, abridged:
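Purified RbFox RRM, wild type or mutant, was incubated for 10 min in 50 µL with 1 nM of a 5′-radiolabelled RNA pool carrying 7 randomized nucleotides, whose flanks were annealed to DNA oligonucleotides, over a series of increasing protein concentrations. Unbound RNA was resolved on 8% native PAGE, cut out, reverse-transcribed, barcoded by PCR and sequenced on an Illumina HiSeq 2500. Relative association constants were derived from changes in read counts for each RNA species versus the control reaction and normalised to the cognate motif.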
Take B1: the binding signal is 0.0117 KA relative to UGCAUGU.

With B2, the binding signal was 0.0114 KA relative to UGCAUGU.

With B3, the binding signal is 0.0213 KA relative to UGCAUGU.

In the case of B4, the binding signal was 0.00726 KA relative to UGCAUGU.

For B5, the binding signal is 0.0111 KA relative to UGCAUGU.

In the case of B6, the binding signal is 0.0272 KA relative to UGCAUGU.

Regarding B7, the binding signal was 0.0141 KA relative to UGCAUGU.

Turning to B8, the binding signal is 0.0204 KA relative to UGCAUGU.

As for B9, the binding signal was 0.0236 KA relative to UGCAUGU.

In the case of B10, the binding signal was 0.00558 KA relative to UGCAUGU.

For B11, the binding signal was 0.0136 KA relative to UGCAUGU.

As for B12, the binding signal is 0.0077 KA relative to UGCAUGU.

As for B13, the binding signal is 0.00902 KA relative to UGCAUGU.

Regarding B14, the binding signal was 0.000872 KA relative to UGCAUGU.

Take B15: the binding signal was 0.0124 KA relative to UGCAUGU.

As for B16, the binding signal was 0.0238 KA relative to UGCAUGU.

Regarding B17, the binding signal is 0.00295 KA relative to UGCAUGU.

With B18, the binding signal is 0.00242 KA relative to UGCAUGU.

For the molecule B19, the binding signal was 0.0207 KA relative to UGCAUGU.

Regarding B20, the binding signal was 0.0227 KA relative to UGCAUGU.

In the case of B21, the binding signal is 0.00754 KA relative to UGCAUGU.

For B22, the binding signal was 0.00419 KA relative to UGCAUGU.

Regarding B23, the binding signal was 0.00692 KA relative to UGCAUGU.

For B24, the binding signal is 0.00897 KA relative to UGCAUGU.

In the case of B25, the binding signal is 0.00534 KA relative to UGCAUGU.

Regarding B26, the binding signal is 0.0216 KA relative to UGCAUGU.

Regarding B27, the binding signal is 0.00451 KA relative to UGCAUGU.

Consider B28, for which the binding signal is 0.00473 KA relative to UGCAUGU.

Turning to B29, the binding signal was 0.00968 KA relative to UGCAUGU.

As for B30, the binding signal is 0.000937 KA relative to UGCAUGU.

For B31, the binding signal was 0.00709 KA relative to UGCAUGU.
